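Step 1: Grow cells in 96-well plates. Step 2: Expose to compound for 48 hours at 5 concentrations. Step 3: Interpolate endpoints linearly; if unreached, use highest concentration. Abbreviation: GI50, concentration required for 50% inhibition of growth.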 Activity calls are given as the source filed them. No stated cut-off is given here; in the data, active = GI50 up to about 1.1 µM and inactive = higher. A value given as a limit tells only on which side of the number the result lay.

These results are taken from ChEMBL document CHEMBL1201862, “PubChem BioAssay data set” (2004).

The assay concerns NCI-H322M. Kind of assay: NCI-60 cell line screen, 48 h.
As to `Nc1nc(O)c([N+](=O)[O-])c(NCCOCP(=O)(O)O)n1`, the GI50 was inactive: > 100 µM.
The value for `O=[N+]([O-])c1ccc2ncccc2c1CCc1c([N+](=O)[O-])ccc2ncccc12` was inactive: > 100 µM.
With `O=C(/C(=C/c1ccc(O)cc1)c1ccccc1)c1ccccc1`, the GI50 was inactive: 17.6 µM.
As to `O=S(=O)([N-]c1nc2ccccc2nc1-[n+]1ccccc1)c1ccccc1`, the GI50 was inactive: > 100 µM.
The value for `COc1cccc(C2CC(=O)c3cc(N4CCCC4)ccc3N2)c1` (stereo unspecified) was active: 0.0518 µM.
Turning to `CC(C)CCC1(CCN)C(=O)NC(=O)NC1=O`, the GI50 was inactive: > 100 µM.
With `Oc1ccc(/N=C/c2ccc(/C=N/c3ccc(O)cc3)cc2)cc1`, the GI50 is inactive: 15.5 µM.
As for `COc1cc(C2C3=C(COC3=O)Oc3cc4c(cc32)OCO4)ccc1O` (stereo unspecified), the GI50 is active: 0.579 µM.
`O=c1[nH]cnc2cccc(Cl)c12`: the GI50 was inactive: > 100 µM.
`Cn1c2c(c3ccccc31)CC(=O)N1CCCC(C1)CC21OCCO1` (stereo unspecified): the GI50 is inactive: > 100 µM.
The value for `Brc1ccc(-c2ccc(-c3ccc(Br)s3)s2)s1` was inactive: > 100 µM; that for `S=C(N/N=C/c1ccccn1)Nc1ccc(Cl)cc1` was active: 0.239 µM.
The value for `CCOC(=O)C[C@@]12CCCN[C@]1(C)CCc1ccccc12` was inactive: > 100 µM.
Take `CCOC(=O)c1ccc(Nc2nc3ccccc3n3cccc23)cc1`: the GI50 is inactive: 69.2 µM.
Regarding `CCOC(=O)c1nc2ccc(C(F)(F)F)cc2nc1Oc1ccc(F)cc1`, the GI50 is inactive: > 100 µM.
For `N#Cc1c(-c2ccccc2)cc(-c2cccs2)c(C#N)c1N`, the GI50 is inactive: > 100 µM.
Consider `CC(O)C(NC(=O)c1ccccc1)C(=O)N(Cc1ccccc1)Cc1ccccc1` (stereo unspecified), for which the GI50 was inactive: 20 µM.
Take `CCN(CC)c1ccc2cc3ccc(N(CC)CC)cc3[o+]c2c1`: the GI50 was inactive: 4.92 µM.
Regarding `COC(=O)C1=C(C)C=C(N2CCOCC2)C(C(=O)OC)C1c1ccccc1` (stereo unspecified), the GI50 is inactive: > 10 µM.
The value for `CCOC(=O)C(NCc1cccc(C(F)(F)F)c1)(NC(=O)c1ccccc1)C(F)(F)F` (stereo unspecified) was inactive: 46.7 µM; that for `Cc1ccc2c(c1)CN1c3ccc(C)cc3CN2C1c1ccccc1O` was inactive: > 100 µM.
With `CCn1c(SCc2nnc(Nc3ccccc3)s2)nc2ccccc2c1=O`, the GI50 was inactive: 2.75 µM.
In the case of `CC(C)(C)C(=O)C(C(=O)c1ccccc1)C(=O)C(C)(C)C`, the GI50 is inactive: > 100 µM.
On to `Nc1ncc2ncn(C3CCC(CO)O3)c2n1` (stereo unspecified), for which the GI50 was inactive: > 100 µM.
`Cc1cc(=O)oc2c(C)c(OCCCOc3ccc4c(C)cc(=O)oc4c3C)ccc12`: the GI50 was inactive: > 100 µM.
`CS/C(c1ccccc1)=[N+](\[O-])Cc1ccccc1`: the GI50 is inactive: > 100 µM.
Regarding `NNC(=O)c1ccc[n+](CCc2ccccc2)c1`, the GI50 is inactive: > 100 µM.
The value for `CCCCC(=O)Nc1ccc2cc(C(=O)OC)c(ON3C(=O)c4ccccc4C3=O)nc2n1` was inactive: 16 µM; that for `Cc1c2ccccc2c(C)n2c1nc1cc(Cl)c(Cl)cc12` was inactive: > 10 µM; that for `O=c1[nH]nc(-c2ccccc2)n1-c1cccc([N+](=O)[O-])c1` was inactive: > 100 µM.
For the compound `O=C(c1ccccc1)c1cc(-c2ccccc2)c(-c2ccccc2)[nH]c(=O)c1=O`, the GI50 is inactive: 45.7 µM.
For `Cc1cc(S(=O)(=O)N/C(=N/N)NCCc2ccccc2)c(S)cc1Cl`, the GI50 was inactive: 24.6 µM.
`C=CCN(c1cc(OCc2ccccc2)c2c(c1)c(C)cn2S(=O)(=O)c1ccccc1)S(C)(=O)=O`: the GI50 was inactive: > 100 µM.
The value for `COC(=O)CCCc1ccc2c(c1)CC1(C2)Cc2cc3c(cc2C1)CCCC3` was inactive: > 100 µM.
As to `O=C1[C@H]2ON(c3ccccc3)C(c3ccc(Cl)cc3)[C@H]2C(=O)N1c1ccc(Cc2ccc(N3C(=O)[C@@H]4ON(c5ccccc5)C(c5ccc(Cl)cc5)[C@@H]4C3=O)cc2)cc1` (stereo partly specified), the GI50 is inactive: > 100 µM.
Take `C/C(=N/O)c1cccc(Nc2nc3ccc(Cl)cc3c3[nH]c4ccccc4c23)c1`: the GI50 was active: 0.769 µM.
In the case of `CCCCC1=NNC(=O)C1`, the GI50 was inactive: > 100 µM.
On to `COc1nc2ccc(CNc3ccc(C(=O)O)cc3)cc2nc1OC`, for which the GI50 is inactive: > 10 µM.
For the compound `COC(=O)CN1CCN(c2cccc3c2CCCC3)CC1`, the GI50 is inactive: > 100 µM.
The value for `COc1cccc(CCCNC(=O)Cc2ccccc2CO)c1` was inactive: > 100 µM.
Regarding `CN(C)CCNc1nc2ccccc2c2c1C(=O)c1ccccc1-2`, the GI50 was active: 0.385 µM.
In the case of `CCOC(=O)c1nc2ccccc2nc1Nc1ccc(C(=O)OC)s1`, the GI50 was inactive: > 100 µM.
As to `COCCCNC(=O)C1C(=O)C(=O)N(CCCOC)C1=O` (stereo unspecified), the GI50 is inactive: > 100 µM.
Turning to `CC1(c2ccccc2)N=c2[nH]cnc2=C(C(N)=O)N1` (stereo unspecified), the GI50 is inactive: > 100 µM.
As to `CCOC(=O)CC(=O)Nc1cccc2nc[nH]c12`, the GI50 is inactive: > 100 µM.
As for `c1ccc(N/N=C2\CC(c3ccccc3)Oc3ccccc32)cc1` (stereo unspecified), the GI50 is inactive: 44.6 µM.
In the case of `Cc1ccccc1N1C(N)=C(C#N)C(C#N)(C#N)C1c1ccccc1` (stereo unspecified), the GI50 was inactive: 19.5 µM.
The value for `O=C1c2nn(-c3ccccc3)nc2C(c2ccccc2)N1c1ccccc1` (stereo unspecified) was inactive: > 100 µM; that for `N#CCC(=O)N/N=C(/C(=O)Nc1ccccc1)C1C(=O)N(c2ccccc2)N=C1N` (stereo unspecified) was inactive: > 100 µM; that for `O=C1/C(=C/c2ccc(Cl)cc2)COc2ccc(Br)cc21` was inactive: > 100 µM.
The value for `N/C(=N\O)N/N=C\c1cc([N+](=O)[O-])cc([N+](=O)[O-])c1O` was inactive: > 68.5 µM.
The value for `CCOC(=O)C1=NN(c2ccc(C)cc2)C2(c3ccccc3)C=C(c3ccccc3)N(C)CCN12` (stereo unspecified) was inactive: > 100 µM.
In the case of `COC(=O)C1=C(O)c2cc3c(cc2[C@H](c2cc(OC)c(OC)c(OC)c2)C1)OCO3`, the GI50 is inactive: > 100 µM.
For `C1=N\CCOCC/N=C/c2ccccc2OCc2cccc(n2)COc2ccccc2/1`, the GI50 was inactive: > 25 µM.
Consider `c1cc(-c2ccc(-c3ccc(C4=NC5CCCCC5N4)cc3)o2)ccc1C1=NC2CCCCC2N1` (stereo unspecified), for which the GI50 is inactive: 1.36 µM.
On to `CC(C)(C)C(=O)OC(N)/C=C/c1ccccc1` (stereo unspecified), for which the GI50 was inactive: > 100 µM.
The value for `COc1ccc(/C=C2\CCC(C)(CN(C)C)C2=O)cc1Br` (stereo unspecified) was inactive: 30.1 µM; that for `CC1(C)CC2(C)ON=C(c3ccccc3)N2c2ccccc2N1` (stereo unspecified) was inactive: 24 µM.
Regarding `COC(=O)C1(Cc2ccccc2)Cc2cc3c(cc2C1=O)CCC3` (stereo unspecified), the GI50 was inactive: 2.35 µM.
The value for `C[S+](C)CC(=O)c1ccc2c(c1)Sc1ccccc1O2` was inactive: 8.45 µM.
Take `O=c1[nH]nc(Cc2ccc([N+](=O)[O-])cc2)[nH]1`: the GI50 is inactive: > 100 µM.
Take `Cc1c(NC(=O)CCl)c(=O)oc2c(C)c3occc(=O)c3cc12`: the GI50 is inactive: 13.5 µM.
Take `Cn1c2ccccc2n2c(=O)c3c(c(C#N)c12)CCCC3`: the GI50 was inactive: > 100 µM.
With `COc1cc(N(CCC#N)CCC#N)ccc1C(/N=N/c1ccccc1C)=N\NC(=O)c1ccc(C)cc1`, the GI50 is inactive: > 100 µM.
The value for `CC(C)N1CN(c2ccccc2)C2(CCN(CCCC(=O)c3ccc(F)cc3)CC2)C1=O` was inactive: 4.68 µM.
For `CC1CN(CCO)CCN1c1ccccc1` (stereo unspecified), the GI50 was inactive: > 100 µM.
Take `COc1ccc(-n2cnc3c2=NC(C)(C)NC=3C(N)=O)c(OC)c1`: the GI50 was inactive: > 100 µM.
Regarding `COC(=O)c1ccccc1CC1Cc2cccc(C)c2C1=O` (stereo unspecified), the GI50 was inactive: > 100 µM.
As for `CCOC(=O)N1c2c(c3ccccc3n2C(=O)OCC)C(=O)C(OC)N1C(=O)OCC` (stereo unspecified), the GI50 is inactive: 47.2 µM.
For the compound `C=CCc1cc(-c2cc(CC=C)c(O)c(CN(CCCl)CCCl)c2)cc(CN(CCCl)CCCl)c1O`, the GI50 was inactive: 23.6 µM.
As to `CC(C)(C)c1cc(C(OCCl)(C(F)(F)F)C(F)(F)F)c2c(c1)C(C(F)(F)F)(C(F)(F)F)OC21c2ccccc2C(=O)c2ccccc21`, the GI50 was inactive: > 100 µM.
As to `COCN1C(=O)[C@@H]2C[C@@H](O)CN2C(=O)c2ccccc21`, the GI50 is inactive: > 100 µM.
For `COc1ccc(CC/N=C2\CCC(C(=O)NCCc3ccc(OC)c(OC)c3)N2)cc1OC` (stereo unspecified), the GI50 was inactive: > 100 µM.
The value for `N#C/C(=C/C=C/c1ccco1)C(N)=O` was inactive: > 10 µM; that for `O=C(CCC(=O)c1ccc(Cl)cc1)NO` was inactive: > 100 µM; that for `COC(C)(C)C1(O)CC[C@@H](C)CC1=O` (stereo partly specified) was inactive: > 100 µM.
Turning to `CC[C@@]1(O)C[C@H](OC2CC(N(C)C)C(OC3CC(O)C(OC4CC(O)C(O)C(C)O4)C(C)O3)C(C)O2)c2c(cc3c(c2O)C(=O)c2c(O)ccc(O)c2C3=O)[C@H]1C(=O)OC` (stereo partly specified), the GI50 is active: 0.00906 µM.
In the case of `COC(OC)c1cc2c(cc1C=O)OCO2`, the GI50 was inactive: > 100 µM.
Consider `COC(=O)[C@@H]1CN(C(=O)Cc2ccccc2)C(=O)N1`, for which the GI50 is inactive: > 100 µM.
Take `CC(NCCS(=O)(=O)O)C(=O)O` (stereo unspecified): the GI50 is inactive: > 100 µM.
Take `CCOP(=O)(O)C(Nc1ccc(/N=N/c2ccccc2)cc1)c1cccc(C(Nc2ccc(/N=N/c3ccccc3)cc2)P(=O)(O)OCC)c1` (stereo unspecified): the GI50 was inactive: 31.3 µM.
Consider `COc1ccc(CC2C3=C(CCN2C(=O)C2CCC2)CC2(CC3)OCCO2)cc1O` (stereo unspecified), for which the GI50 is inactive: 26.9 µM.
Consider `c1ccc2c(NCCCCCCCCNc3c4ccccc4nc4ccccc34)c3ccccc3nc2c1`, for which the GI50 was active: 0.188 µM.
As for `Oc1cccc(-c2nc3cc(F)ccc3s2)c1`, the GI50 is inactive: 20.9 µM.
Consider `N=C(N)N/N=C/c1c(-c2ccc(Cl)cc2)nc2sccn12`, for which the GI50 is inactive: 3.67 µM.
For `CN(C)Cc1cc(/C=C/C(=O)c2ccc(Cl)c(Cl)c2)cc(CN(C)C)c1O`, the GI50 is inactive: 14.1 µM.
